Source: PubChem BioAssay (NCATS)
Inconclusive results, whose numbers are uncertain, are shown with a selection of clear calls. Where the call is inconclusive, the potency comes from a doubtful curve fit. The source made the active and inactive calls. The call rests on the fitted dose curve; in most records, active means well fitted inhibition curve with a large enough effect; inconclusive means small, poorly fitted or top-dose-only effect; inactive means flat fitted curve, though single readings scatter.
Potency means the concentration at half of the fitted maximal effect; tags describe the fitted curve by direction and shape.

What follows are compounds tested against Dual specificity protein kinase CLK4 (Homo sapiens) (UniProt Q9HAZ1) (assay: qHTS Assay for Inhibitors of CDC-like Kinase 4 (ADP-FP Assay) (AID 1795;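 further: recombinant human CLK4 phosphorylating RS repeat peptide at 1 µM ATP; nearly all actives have a fitted effect of over 60% in size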)). Settings: Transcreener ADP fluorescence polarization; series mostly up to 50 µM.
UniProt Q9HAZ1, sequence (Q9HAZ1 whole entry, looked up): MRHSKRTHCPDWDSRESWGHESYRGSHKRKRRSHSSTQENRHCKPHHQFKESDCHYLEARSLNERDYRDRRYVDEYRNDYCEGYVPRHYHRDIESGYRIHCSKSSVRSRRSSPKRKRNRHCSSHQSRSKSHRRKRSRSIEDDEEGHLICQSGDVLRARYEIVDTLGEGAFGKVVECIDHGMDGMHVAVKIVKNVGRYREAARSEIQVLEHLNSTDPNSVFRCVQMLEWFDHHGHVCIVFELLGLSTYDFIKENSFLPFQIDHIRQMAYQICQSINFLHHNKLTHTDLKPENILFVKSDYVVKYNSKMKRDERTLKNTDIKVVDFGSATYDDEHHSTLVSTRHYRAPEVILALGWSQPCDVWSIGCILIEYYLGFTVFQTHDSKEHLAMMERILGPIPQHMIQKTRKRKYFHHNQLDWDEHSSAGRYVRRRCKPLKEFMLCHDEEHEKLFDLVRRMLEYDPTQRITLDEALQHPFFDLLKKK
Method: NIH Molecular Libraries Probe Production Centers Network [MLPCN] NIH Chemical Genomics Center [NCGC] MLPCN Grant: 1R03MH084827-01 Assay Submitter (PI): Tom Misteli NCGC Assay Overview: Clk4 (Invitrogen cat # PV3839) was assayed using ATP and the RS repeat peptide (AnaSpec cat # 61722) as substrates using Transcreener (trade mark), a competitive fluorescence polarization (FP) assay. For the present assay, we used the Orange TranscreenerTM ADP2 (BellBrooks Labs, Madison, Wis) detection system to monitor ADP production in the kinase reaction. […] This allows the ADP tracer to freely rotate leading to a decrease in the observed FP value. The amount of ADP produced can then be calculated using a calibration curve. The positive control for the assay was TG003 (Sigma-Aldrich, cat # 300801-52-9) which is a Clk4 inhibitor [2].
NCGC Assay Protocol Summary: Two uL/well of substrate-buffer solution (100 uM RS peptide, 1 uM ATP, 25 mM Tris pH7.5, 10 mM MgCl2, 0.5 mM EGTA, 2.5 mM DTT, 0.01% Triton X-100 final concentration) was dispensed into 1,536-well assay plates (Greiner, solid black medium-binding plates) with Aurora Discovery BioRAPTR Flying Reagent Dispenser (FRD; Beckton-Dickenson). Using a Kalypsys pin tool equipped with a 1,536-pin tool, 23 nL of compound solution was transferred to the assay plate. Two uL/well Clk4-buffer solution (6.25 nM Clk4, 25 mM Tris pH 7.5, 10 mM MgCl2, 0.5 mM EGTA, 2.5 mM DTT, 0.01% Triton X-100, final concentration) was then added using the FRD yielding a total kinase reaction volume of 4 uL/ well. Then 4 uL/well of detection mixture (4 nM orange fluorescent tracer, 1 ug/mL ADP antibody, final concentration) was then added after an hour and the polarization signal was measured using the EnVision plate reader (PerkinElmer, Waltham, MA) after 30 min of room temperature incubation using the following filters and program settings: BODIPY TMR FP dual Enh mirror (barcode 682); BODIPY-TMR 531 (barcode 105) excitation; BODIPY-TMR FP P/S polarized 595 nm filters (barcodes 210 and 211, respectively); 100% light; 150 flashes; 1.35 G-factor; Detector gains were 685 for the 1st detector; 630 for the 2nd detector.
With `CN1CCN(c2ncc3nc(-c4cccc(C#N)c4)c(=O)n(Cc4ccc(F)cc4)c3n2)CC1` the Potency was “inactive”.
With `COc1ccccc1-c1cc(NCc2cccs2)ncn1` the Potency was inconclusive: 14.1 µM [falling, partial curve].
In the case of `COc1ccccc1-c1nc(N2CCOCC2)c2ccccc2n1`, the Potency is reported as “inactive”.
`COc1ccc(CNc2cc(-c3cccnc3)ncn2)c(OC)c1` was tested, and the Potency was active: 10 µM.
In the case of `Cc1noc(C)c1-c1ccc2ncnc(NC3CCNCC3)c2c1`, the Potency is reported as inconclusive: 15.8 µM [falling, partial curve].
`CN(C)c1ccc(-c2nc(-n3ccnc3)c3ccccc3n2)cc1` was tested, and the Potency was inconclusive: 12.6 µM [falling, partial curve].
With `CN(C)C(=O)c1ccc(-c2cc(-n3ccnc3)ncn2)cc1` the Potency was active: 12.6 µM.
`CN1CCN(c2ncc3nc(-c4cn(C)c5ccccc45)c(=O)n(-c4ccccc4)c3n2)CC1` was tested, and the Potency was “inactive”.
For `COc1ccc2[nH]cc(CCNc3nc(-c4cccnc4)nc4ccccc34)c2c1`, the Potency was inconclusive: 5.01 µM [falling, partial curve].
`c1cncc(-c2nccc(NCc3cccs3)n2)c1` was tested, and the Potency was inconclusive: 12.6 µM [falling, partial curve].
For `CS(=O)(=O)Nc1cccc(-c2ccc3ncnc(Nc4ccccc4)c3c2)c1`, the Potency was active: 14.1 µM.
With `CNc1nc(-c2cccc(NS(C)(=O)=O)c2)nc2ccccc12` the Potency was inconclusive: 6.31 µM [falling, partial curve].
`Cc1ccccc1-c1cncnc1NCc1ccccc1` was tested, and the Potency was “inactive”.
In the case of `CN(C)C(=O)c1ccc(-c2cc(NCc3cccnc3)ncn2)cc1`, the Potency is reported as inconclusive: 11.2 µM [falling, partial curve].
`COc1cccc(-c2cc(NCc3cccnc3)ncn2)c1` was tested, and the Potency was inconclusive: 7.94 µM [falling, partial curve].
`N#Cc1cccc(-c2cncnc2NCc2cccnc2)c1` was tested, and the Potency was “inactive”.
For `O=c1c(-c2cc(F)cc(F)c2)nc2cnc(N3CCOCC3)nc2n1Cc1ccc(F)cc1`, the Potency was “inactive”.
With `CCNc1ncc2nc(-c3ccc(F)cc3)c(=O)n(CCOC)c2n1` the Potency was “inactive”.
In the case of `Cc1nc2cnc(N3CCOCC3)nc2n(C2CC2)c1=O`, the Potency is reported as “inactive”.
`CNc1nc(-c2cccnc2)nc2ccccc12` was tested, and the Potency was active: 3.98 µM.
In the case of `c1nc(NC2CCNCC2)c2cc(-c3ccoc3)ccc2n1`, the Potency is reported as active: 0.631 µM.
`COc1cccc(-c2ccc3ncnc(NCc4ccccc4)c3c2)c1` was tested, and the Potency was active: 0.794 µM.
In the case of `c1ncc(-c2ccoc2)c(NC2CC2)n1`, the Potency is reported as inconclusive: 11.2 µM [falling, partial curve].
For `CCNc1ncc2nc(-c3cc(F)cc(F)c3)c(=O)n(Cc3ccc(F)cc3)c2n1`, the Potency was “inactive”.
With `COc1cccc(-c2nc(N(C)Cc3ccco3)c3ccccc3n2)c1` the Potency was inconclusive: 12.6 µM [falling, partial curve].
`Cc1cnc(CNc2ncnc3ccc(-c4cccc(NS(C)(=O)=O)c4)cc23)cn1` was tested, and the Potency was inconclusive: 12.6 µM [falling, partial curve].
`CC(=O)NCCNc1nc(-c2cccnc2)nc2ccccc12` was tested, and the Potency was inconclusive: 12.6 µM [falling, partial curve].
For `Clc1ccccc1-c1ccc2ncnc(N3CCNCC3)c2c1`, the Potency was inconclusive: 15.8 µM [falling, partial curve].
With `N#Cc1cccc(-c2nc(NCc3cccnc3)c3ccccc3n2)c1` the Potency was inconclusive: 3.55 µM [falling, partial curve].
In the case of `COc1ccccc1CNc1ncncc1-c1ccc(C(=O)N(C)C)cc1`, the Potency is reported as active: 12.6 µM.
In the case of `COc1cccc(Nc2ncc3nc(C)c(=O)n(C4CC4)c3n2)c1`, the Potency is reported as inconclusive: 7.08 µM [falling, partial curve].
With `COc1ccc2[nH]cc(CCNc3cc(-c4ccccc4C)ncn3)c2c1` the Potency was inconclusive: 17.8 µM [falling, partial curve].
With `COc1cccc(-c2cc(N(C)Cc3ccco3)ncn2)c1` the Potency was inconclusive: 12.6 µM [falling, partial curve].
In the case of `COc1cccc(Cn2c(=O)c(-c3cccc(C#N)c3)nc3cnc(N4CCN(C)CC4)nc32)c1`, the Potency is reported as “inactive”.
For `c1cncc(-c2cc(NCc3cccs3)ncn2)c1`, the Potency was inconclusive: 20 µM [falling, partial curve].
In the case of `N#Cc1cccc(-c2cc(NCc3cccnc3)ncn2)c1`, the Potency is reported as inconclusive: 12.6 µM [falling, single point].
In the case of `Fc1ccc(Nc2ccnc(-c3ccoc3)n2)cc1`, the Potency is reported as inconclusive: 12.6 µM [falling, partial curve].
In the case of `CCNc1ncc2nc(-c3ccc(Cl)cc3)c(=O)n(C[C@H]3CCCO3)c2n1`, the Potency is reported as “inactive”.
`FC(F)(F)c1ccccc1-c1nc(N2CCOCC2)c2ccccc2n1` was tested, and the Potency was inconclusive: 11.2 µM [falling, partial curve].
`CNc1ncnc2ccc(-c3ccccc3C)cc12` was tested, and the Potency was active: 8.91 µM.
